In the supplement of paper PMC8728848:
This is one part of the list.

Assays:
Experiment in all cases: glycan array binding signal (z-score within array); higher = stronger binding
Conditions in all cases: glycan notation: IUPAC condensed, linker removed
[1] = target: Gal3S(b1-3)[Fuc(a1-4)]GlcNAc
Method in brief: (§1)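 Glycan array binding is given as a within-array Z-score, which can be read as non-binding when negative. The arrays, 3228 of them, came from the Consortium for Functional Glycomics database and were retained only where the protein sequence was available. Z-scores were averaged across arrays of the same protein sequence at different concentrations or buffers and across linkers.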

[2] = target: Gal3S(b1-4)Glc
Method in brief: as §1

[3] = target: Gal3S(b1-4)Glc6S
Method in brief: as §1

[4] = target: Gal3S(b1-4)GlcNAc
Method in brief: as §1

[5] = target: Gal3S(b1-4)[Fuc(a1-3)]Glc6S
Method in brief: as §1

[6] = target: Gal3S(b1-4)[Fuc(a1-3)]GlcNAc
Method in brief: as §1

[7] = target: Gal3S(b1-4)[Fuc(a1-3)]GlcNAc6S
Method in brief: as §1

[8] = target: Gal3S4S(b1-4)GlcNAc
Method in brief: as §1

[9] = target: Gal3S6S(b1-4)GlcNAc
Method in brief: as §1

[10] = target: Gal3S6S(b1-4)GlcNAc6S
Method in brief: as §1

[11] = target: Gal4S(b1-4)GlcNAc
Method in brief: as §1

[12] = target: Gal4S6S(b1-4)GlcNAc
Method in brief: as §1

[13] = target: Gal6P(b1-4)GlcNAc
Method in brief: as §1

[14] = target: Gal6S(b1-3)GlcNAc
Method in brief: as §1

[15] = target: Gal6S(b1-3)GlcNAc6S
Method in brief: as §1

[16] = target: Gal6S(b1-4)Glc
Method in brief: as §1

[17] = target: Gal6S(b1-4)Glc6S
Method in brief: as §1

[18] = target: Gal6S(b1-4)GlcNAc
Method in brief: as §1

[19] = target: Gal6S(b1-4)GlcNAc6S
Method in brief: as §1

[20] = target: GalNAc(a1-3)Gal
Method in brief: as §1

[21] = target: GalNAc(a1-3)GalNAc
Method in brief: as §1

[22] = target: GalNAc(a1-3)GalNAc(b1-3)Gal(a1-4)Gal(b1-4)Glc
Method in brief: as §1

[23] = target: GalNAc(a1-3)GalNAc(b1-3)Gal(a1-4)Gal(b1-4)GlcNAc
Method in brief: as §1

[24] = target: GalNAc(b1-3)Gal
Method in brief: as §1

[25] = target: GalNAc(b1-3)Gal(a1-4)Gal(b1-4)GlcNAc
Method in brief: as §1

[26] = target: GalNAc(b1-3)Gal(a1-4)Gal(b1-4)GlcNAc(b1-3)Gal(b1-4)Glc
Method in brief: as §1

[27] = target: GalNAc(b1-3)Gal(a1-6)Gal(b1-4)Glc
Method in brief: as §1

[28] = target: GalNAc(b1-3)GalNAc
Method in brief: as §1

[29] = target: GalNAc(b1-3)GlcNAc
Method in brief: as §1

[30] = target: GalNAc(b1-4)Gal(b1-4)Glc
Method in brief: as §1

[31] = target: GalNAc(b1-4)GlcNAc
Method in brief: as §1

[32] = target: GalNAc(b1-4)GlcNAc(b1-2)Man
Method in brief: as §1

[33] = target: GalNAc(b1-4)GlcNAc(b1-2)Man(a1-3)[GalNAc(b1-4)GlcNAc(b1-2)Man(a1-6)]Man(b1-4)GlcNAc(b1-4)GlcNAc
Method in brief: as §1

[34] = target: GalNAc(b1-4)GlcNAc(b1-3)GalNAc(b1-4)GlcNAc
Method in brief: as §1

[35] = target: GalNAc(b1-4)GlcNAc6S
Method in brief: as §1

[36] = target: GalNAc(b1-6)GalNAc
Method in brief: as §1

[37] = target: GalNAc3S(b1-4)GlcNAc
Method in brief: as §1

[38] = target: GalNAc3S(b1-4)GlcNAc3S
Method in brief: as §1

[39] = target: GalNAc3S(b1-4)[Fuc(a1-3)]GlcNAc
Method in brief: as §1

[40] = target: GalNAc4S6S(b1-4)GlcNAc
Method in brief: as §1

[41] = target: GalNAc6S(b1-4)GlcNAc
Method in brief: as §1

[42] = target: Glc(a1-4)Glc
Method in brief: as §1

[43] = target: Glc(a1-4)Glc(a1-4)Glc(a1-4)Glc
Method in brief: as §1

[44] = target: Glc(a1-6)Glc(a1-6)Glc
Method in brief: as §1

[45] = target: Glc(a1-6)Glc(a1-6)Glc(a1-6)Glc
Method in brief: as §1

B1: CFEM-PPm (Pichia pastoris), F2QPV1 (protein)
chain: AVATPPACLLACAAEVVKESSDCDALNNIQCICENEGSAIHACLESTCPDGLSSTALQSFEDVCE
- glycan array binding signal (z-score) [1]: -0.262
- glycan array binding signal (z-score) [2]: -0.207
- glycan array binding signal (z-score) [3]: -0.073
- glycan array binding signal (z-score) [4]: -0.129
- glycan array binding signal (z-score) [5]: 0.602
- glycan array binding signal (z-score) [6]: -0.202
- glycan array binding signal (z-score) [7]: -0.065
- glycan array binding signal (z-score) [8]: -0.292
- glycan array binding signal (z-score) [9]: -0.253
- glycan array binding signal (z-score) [10]: -0.033
- glycan array binding signal (z-score) [11]: -0.296
- glycan array binding signal (z-score) [12]: -0.256
- glycan array binding signal (z-score) [13]: -0.341
- glycan array binding signal (z-score) [14]: -0.06
- glycan array binding signal (z-score) [15]: -0.081
- glycan array binding signal (z-score) [16]: 0.035
- glycan array binding signal (z-score) [17]: 1.25
- glycan array binding signal (z-score) [18]: 0.142
- glycan array binding signal (z-score) [19]: 0.301
- glycan array binding signal (z-score) [20]: -0.297
- glycan array binding signal (z-score) [21]: -0.194
- glycan array binding signal (z-score) [22]: -0.31
- glycan array binding signal (z-score) [23]: 0.223
- glycan array binding signal (z-score) [24]: -0.228
- glycan array binding signal (z-score) [25]: -0.22
- glycan array binding signal (z-score) [26]: -0.285
- glycan array binding signal (z-score) [27]: -0.275
- glycan array binding signal (z-score) [28]: -0.227
- glycan array binding signal (z-score) [29]: -0.071
- glycan array binding signal (z-score) [30]: -0.165
- glycan array binding signal (z-score) [31]: -0.159
- glycan array binding signal (z-score) [32]: -0.238
- glycan array binding signal (z-score) [33]: 0.149
- glycan array binding signal (z-score) [34]: -0.226
- glycan array binding signal (z-score) [35]: -0.05
- glycan array binding signal (z-score) [36]: -0.223
- glycan array binding signal (z-score) [37]: -0.433
- glycan array binding signal (z-score) [38]: -0.287
- glycan array binding signal (z-score) [39]: -0.176
- glycan array binding signal (z-score) [40]: -0.188
- glycan array binding signal (z-score) [41]: -0.284
- glycan array binding signal (z-score) [42]: -0.152
- glycan array binding signal (z-score) [43]: -0.244
- glycan array binding signal (z-score) [44]: -0.164
- glycan array binding signal (z-score) [45]: -0.404
